The list shows a part of the results. Rule as the data show it: active = 3.2 or more and inactive = the rest. Only a few entries rise above the background.
Tests used:
Test in all cases: enrichment score (SH2-bound / input frequency) (ratio); bacterial display of known human phosphotyrosine sites (pTyr-Var adds point mutants) read by sequencing; higher = stronger binding; tyrosines were phosphorylated by kinases first
Conditions in all cases: peptide library: pTyr-Var
SHP2 C-SH2 domain E139D = biological target: SHP2 C-SH2 domain E139D
[1] = biological target: SHP2 C-SH2 domain wild-type
SHP2 N-SH2 domain L43F = biological target: SHP2 N-SH2 domain L43F
SHP2 N-SH2 domain T42A = biological target: SHP2 N-SH2 domain T42A
SHP2 N-SH2 domain T52S = biological target: SHP2 N-SH2 domain T52S
[2] = biological target: SHP2 N-SH2 domain wild-type

Measured: enrichment score
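Also: displayed peptides selected on beads carrying the immobilized SH2 domain, with library peptides lacking any tyrosine serving as negative controls.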

KDYETYQPFQN [CTNND2_Y1157]
inactive: SHP2 C-SH2 domain E139D 1.08 | [1] 0.938 | SHP2 N-SH2 domain L43F 0.73 | SHP2 N-SH2 domain T42A 0.763 | SHP2 N-SH2 domain T52S 0.632 | [2] 0.736

KDFETYQSFQN [CTNND2_Y1157_P1159S_YF]
inactive: SHP2 C-SH2 domain E139D 0.81 | [1] 0.641 | SHP2 N-SH2 domain L43F 0.701 | SHP2 N-SH2 domain T42A 0.715 | SHP2 N-SH2 domain T52S 0.686 | [2] 0.728

KDFETYQPFQN [CTNND2_Y1157_YF]
inactive: SHP2 C-SH2 domain E139D 0.715 | [1] 0.505 | SHP2 N-SH2 domain L43F 0.822 | SHP2 N-SH2 domain T42A 0.673 | SHP2 N-SH2 domain T52S 0.681 | [2] 0.791

YETSHYLASPD [CTNND2_Y1217_P1218L]
inactive: SHP2 C-SH2 domain E139D 0.675 | [1] 0.455 | SHP2 N-SH2 domain L43F 0.53 | SHP2 N-SH2 domain T42A 0.532 | SHP2 N-SH2 domain T52S 0.512 | [2] 0.784

FETSHYLASPD [CTNND2_Y1217_P1218L_YF]
inactive: SHP2 C-SH2 domain E139D 1.09 | [1] 0.777 | SHP2 N-SH2 domain L43F 0.993 | SHP2 N-SH2 domain T42A 0.863 | SHP2 N-SH2 domain T52S 0.849 | [2] 0.991

FETSHYPASPD [CTNND2_Y1217_YF]
inactive: SHP2 C-SH2 domain E139D 0.752 | [1] 0.756 | SHP2 N-SH2 domain L43F 0.987 | SHP2 N-SH2 domain T42A 0.574 | SHP2 N-SH2 domain T52S 0.697 | [2] 0.908

NYADPYRQLQY [CTNND2_Y503]
inactive: SHP2 C-SH2 domain E139D 0.838 | [1] 0.992 | SHP2 N-SH2 domain L43F 0.858 | SHP2 N-SH2 domain T42A 0.872 | SHP2 N-SH2 domain T52S 0.742 | [2] 0.828

NFADPYRQLQF [CTNND2_Y503_YF]
inactive: SHP2 C-SH2 domain E139D 0.813 | [1] 1.03 | SHP2 N-SH2 domain L43F 1.99 | SHP2 N-SH2 domain T52S 2.24 | [2] 0.877
active: SHP2 N-SH2 domain T42A 3.85

TTPAVYARVTK [CTRB2_Y246_A250T]
inactive: SHP2 C-SH2 domain E139D 0.504 | [1] 1.31 | SHP2 N-SH2 domain L43F 0.724 | SHP2 N-SH2 domain T42A 0.621 | SHP2 N-SH2 domain T52S 0.887 | [2] 0.481

YYSSEYHYVGG [CTSC_Y345]
inactive: SHP2 C-SH2 domain E139D 1.36 | [1] 1.36 | SHP2 N-SH2 domain L43F 1.09 | SHP2 N-SH2 domain T42A 0.969 | SHP2 N-SH2 domain T52S 1.1 | [2] 1.3

YYSSEYHCVGG [CTSC_Y345_Y347C]
inactive: SHP2 C-SH2 domain E139D 1.1 | [1] 1.02 | SHP2 N-SH2 domain L43F 0.984 | SHP2 N-SH2 domain T42A 0.921 | SHP2 N-SH2 domain T52S 0.888 | [2] 1.16

SSEYHYVGGFY [CTSC_Y347]
inactive: SHP2 C-SH2 domain E139D 1.1 | [1] 2.3 | SHP2 N-SH2 domain L43F 0.964 | SHP2 N-SH2 domain T42A 1.57 | SHP2 N-SH2 domain T52S 0.907 | [2] 0.854

SSEYHCVGGFY [CTSC_Y347_Y347C]
inactive: SHP2 C-SH2 domain E139D 0.567 | [1] 0.817 | SHP2 N-SH2 domain L43F 0.819 | SHP2 N-SH2 domain T42A 0.858 | SHP2 N-SH2 domain T52S 0.615 | [2] 1.06

SSEFHCVGGFF [CTSC_Y347_Y347C_YF]
inactive: SHP2 C-SH2 domain E139D 0.76 | [1] 0.837 | SHP2 N-SH2 domain L43F 0.574 | SHP2 N-SH2 domain T42A 0.682 | SHP2 N-SH2 domain T52S 0.503 | [2] 0.923

CVGGFYGGCNE [CTSC_Y352_Y347C]
inactive: SHP2 C-SH2 domain E139D 3.1 | [1] 2.56 | SHP2 N-SH2 domain L43F 2.54 | SHP2 N-SH2 domain T42A 2.38 | SHP2 N-SH2 domain T52S 2.73 | [2] 2.14

FVGGFYGGCNE [CTSC_Y352_YF]
inactive: SHP2 C-SH2 domain E139D 1.11 | [1] 1.3 | SHP2 N-SH2 domain L43F 0.962 | SHP2 N-SH2 domain T42A 0.943 | SHP2 N-SH2 domain T52S 0.802 | [2] 1.17

NIFSFYLSRDP [CTSD_Y232]
inactive: SHP2 N-SH2 domain T42A 3.01
active: SHP2 C-SH2 domain E139D 3.94 | [1] 3.21 | SHP2 N-SH2 domain L43F 3.57 | SHP2 N-SH2 domain T52S 3.64 | [2] 3.43

PDSVDYRKKGY [CTSK_Y121]
inactive: SHP2 C-SH2 domain E139D 0.645 | [1] 0.455 | SHP2 N-SH2 domain L43F 0.542 | SHP2 N-SH2 domain T42A 0.475 | SHP2 N-SH2 domain T52S 0.318 | [2] 0.667

PDSVDYRKKGF [CTSK_Y121_YF]
inactive: SHP2 C-SH2 domain E139D 0.566 | [1] 0.502 | SHP2 N-SH2 domain L43F 0.427 | SHP2 N-SH2 domain T42A 0.683 | SHP2 N-SH2 domain T52S 0.536 | [2] 0.672
